Patent US20250090699A1, “FAP TARGETING CYCLIC PEPTIDES AND CONJUGATES THEREOF” (Novartis AG, priority 2023, published 2025)
Like-named read-outs stand apart in the source and are kept apart here. At least one compound was matched to its structure with a doubt left. Starred links: 1 amine or outer side, 2 acyl side, 3 side chain; linkers in the order of their positions; H or OH if unused. Positions of bridges follow the written chain, without caps; N, C: chain ends. Non-standard residues stand in square brackets, D forms with d. Residues, ends and D or L forms follow the SMILES beside them. Groups on a side chain read outwards from the residue. Chains are numbered I, II in the order given. *: point of attachment. X2 = O=C(O)CN1CCN(CC(=O)O)CCN(CC(=O)NC(CC(=O)NCCOCCOCCOCC(=O)[*:1])CC(=O)NCCOCCOCCOCC(=O)[*:2])CCN(CC(=O)O)CC1; DOTA = O=C(O)CN1CCN(CC(=O)O)CCN(CC(=O)*)CCN(CC(=O)O)CC1; Phe(4-CH2NH2) = NCc1ccc(C[C@H](N)C(=O)O)cc1; Piperazinyl(4-CH2COOH) = O=C(O)CN1CCN(*)CC1; AEF = NCCOc1ccc(C[C@H](N)C(=O)O)cc1; NMeF = CN[C@@H](Cc1ccccc1)C(=O)O; Aoc(2) = CCCCCC[C@H](N)C(=O)O; Ahp(2) = CCCCC[C@H](N)C(=O)O; AEEA = NCCOCCOCC(=O)O; CO = O=C([*:1])[*:2]

Legend:
mouse FAP [1] = target: T1, mouse FAP (Mus musculus, UniProt P97321); test: Surface plasmon resonance (SPR) for peptide affinity, mouse FAP; format: binding
T1 construct: biotinylated His, Avi tag, mouse FAP (26-761, FAP-M82Q5); His; Avi tag (biotinylated); purchased AcroBiosystems FAP-M82Q5
T1 sequence (P97321 26-761): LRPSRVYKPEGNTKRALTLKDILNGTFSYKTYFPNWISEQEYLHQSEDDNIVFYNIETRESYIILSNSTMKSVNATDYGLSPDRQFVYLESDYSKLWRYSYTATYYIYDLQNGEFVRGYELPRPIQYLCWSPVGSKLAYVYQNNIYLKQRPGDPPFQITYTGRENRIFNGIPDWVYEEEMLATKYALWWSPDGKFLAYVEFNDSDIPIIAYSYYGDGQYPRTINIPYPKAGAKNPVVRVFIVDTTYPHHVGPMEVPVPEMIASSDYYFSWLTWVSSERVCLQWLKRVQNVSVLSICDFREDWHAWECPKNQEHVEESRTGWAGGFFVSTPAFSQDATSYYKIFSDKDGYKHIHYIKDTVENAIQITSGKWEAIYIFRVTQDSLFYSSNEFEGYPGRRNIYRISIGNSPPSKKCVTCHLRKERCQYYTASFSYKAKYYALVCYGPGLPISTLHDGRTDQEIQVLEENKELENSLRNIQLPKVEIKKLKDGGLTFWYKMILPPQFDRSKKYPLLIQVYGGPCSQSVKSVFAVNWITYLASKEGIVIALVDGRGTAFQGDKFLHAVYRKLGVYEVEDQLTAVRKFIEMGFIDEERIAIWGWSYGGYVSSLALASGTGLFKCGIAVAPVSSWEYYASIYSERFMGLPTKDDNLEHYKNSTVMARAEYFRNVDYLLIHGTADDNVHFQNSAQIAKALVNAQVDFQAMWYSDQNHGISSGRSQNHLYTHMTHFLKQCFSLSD
How it was run: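 Biotinylated His/Avi-tagged FAP ectodomains (human 26-760, mouse 26-761) captured or immobilized on Biacore sensor chips; peptides run at 25 °C in HBS-EP+ pH 7.6 with 2% DMSO, single-cycle kinetics, 8 concentrations. KD from 1:1 binding-model fit of sensorgrams.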

mouse FAP [2] = target: T1, mouse FAP; test: Enzymatic FAP competition assay (Z-Gly-Pro-AMC fluorescence), mouse FAP; format: biochemical; settings: read-out: m. FAP, Enz., IC50
How it was run: (§1)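 Biotinylated His/Avi-tagged FAP ectodomain (human 26-760, mouse 26-761) at 0.01 nM, preincubated 24 h with peptides (14 concentrations, up to 1 μM) in pH 7.5 phosphate, 150 mM NaCl, 0.05% Tween20, 1% DMSO. Then 50 μM Z-Gly-Pro-AMC, 4 h at 22-24° C; AMC fluorescence (380/460 nm) gave IC50 from duplicate points.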

human FAP [3] = target: T2, human FAP (Homo sapiens, UniProt Q12884); test: Enzymatic FAP competition assay (Z-Gly-Pro-AMC fluorescence), human FAP; format: biochemical; settings: read-out: h. FAP, Enz., IC50
T2 construct: the biotinylated His, Avi tag, human FAP (26-760, FAP-H82Q6); His; Avi tag (biotinylated); purchased AcroBiosystems FAP-H82Q6
T2 sequence (Q12884 26-760): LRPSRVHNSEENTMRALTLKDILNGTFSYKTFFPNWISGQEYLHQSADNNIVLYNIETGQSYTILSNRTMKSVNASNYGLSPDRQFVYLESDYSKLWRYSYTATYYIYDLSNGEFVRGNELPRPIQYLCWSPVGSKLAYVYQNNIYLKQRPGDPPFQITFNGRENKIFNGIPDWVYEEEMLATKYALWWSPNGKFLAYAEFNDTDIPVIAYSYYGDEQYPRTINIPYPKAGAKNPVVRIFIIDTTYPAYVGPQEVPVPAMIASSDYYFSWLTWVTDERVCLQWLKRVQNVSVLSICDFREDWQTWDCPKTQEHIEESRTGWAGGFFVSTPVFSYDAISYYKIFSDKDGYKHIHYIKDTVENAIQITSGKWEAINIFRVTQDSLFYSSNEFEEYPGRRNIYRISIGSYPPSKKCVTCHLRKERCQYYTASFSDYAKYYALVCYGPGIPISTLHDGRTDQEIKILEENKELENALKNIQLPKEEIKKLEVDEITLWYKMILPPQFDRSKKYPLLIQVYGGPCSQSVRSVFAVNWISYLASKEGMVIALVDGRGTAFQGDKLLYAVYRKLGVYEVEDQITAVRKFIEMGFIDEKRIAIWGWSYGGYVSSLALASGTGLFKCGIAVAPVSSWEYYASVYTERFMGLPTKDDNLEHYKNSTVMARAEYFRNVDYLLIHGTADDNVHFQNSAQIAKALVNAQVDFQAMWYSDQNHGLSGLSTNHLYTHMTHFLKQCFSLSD
How it was run: as §1

human FAP [4] = target: T2, human FAP; test: Surface plasmon resonance (SPR) for peptide affinity, human FAP; format: binding; settings: read-out: h. FAP, SPR, KD
Description: Peptide affinities (KD) were determined by SPR using a Biacore™ 8K device (Cytiva) towards the following proteins: biotinylated His, Avi tag, human FAP (26-760, FAP-H82Q6), biotinylated His, Avi tag, mouse FAP (26-761, FAP-M82Q5), His tag, human DPP4 (34-766, DP4-H82E3), all purchased from AcroBiosystems and His tag, mouse DPP4 (29-760, 954-SE) from R&D Systems. The FAP proteins and their homologous were diluted to a concentration of 2 μg/mL into acetate buffer pH 5.5, then immobilized onto a CM5 sensorchip (Cytiva, BR-1005-30) to reach a response around 2000 R U. The running buffer HBS-EP+pH 7.6 (20× from Teknova CAT. No: H8022) contained 10 mM HEPES pH 7.6, 150 mM NaCl, 3 mM EDTA, 0.05% Tween20 and 2% DMSO. Experiments were carried out at 25° C. using a flow rate of 30 μL/min. Compounds were tested in single cycle kinetic mode at 8 different concentrations. Curve fitting was performed using the Biacore™ 8K evaluation software. The sensorgrams were fitted by applying a 1:1 binding model to calculate kinetic rate constants and equilibrium dissociation constants (KD).
For this assay, the setup had the same conditions (flow rate, running buffer, peptide dilution) as described above for the CM5 method. The oligo CAP reagent obtained in the CAPture Kit (Ref. 28920234) was 1/5 diluted into running buffer and used with a contact time of 300 s at a flow rate of 2 μL/min. The human and mouse FAP constructs described above were used (from AcroBiosystems or produced in house). The FAP proteins were diluted to a concentration of 2 μg/mL into acetate pH 5.5, 0.05% Tween20 and used with a contact time of 600 s at a flow rate of 10 μL/min. The peptides were tested with an association time of 280 s followed by a dissociation time of 3000 s at a flow rate of 30 μL/min. The regeneration was done using the regeneration solution (8 M guanidine-HCl, 1 M NaOH) as obtained with a contact time of 270 s at a flow rate of 10 μL/min. […] The compounds marked with an asterisk were tested against human and mouse DDP4.

[5] = values marked ** : including further experimental repetition

SMILES	Kd (mouse FAP [1]) [nM]	IC50 (mouse FAP [2]) [nM]	IC50 (human FAP [3]) [nM]	Kd (human FAP [4]) [nM]	Kd (mouse FAP [1]; [5]) [nM]	Kd (human FAP [4]; [5]) [nM]
CCCCC[C@@H]1NC(=O)[C@H](Cc2ccc(OCCNC(=O)COCCOCCOCCNC(=O)CC(CC(=O)NCCOCCOCCOCC(=O)NCCOc3ccc(C[C@@H]4NC(=O)[C@H](Cc5ccccc5)N(C)C(=O)CNC(=O)[C@H](CCCCNC(=O)N5CCN(CC(=O)O)CC5)NC(=O)[C@H]5CCCN5C(=O)[C@H](CC(=O)O)NC(=O)[C@H](Cc5ccc(O)cc5)NC(=O)CNC(=O)[C@H](Cc5c[nH]c6ccccc56)NC(=O)[C@H](CCCCC)NC4=O)cc3)NC(=O)CN3CCN(CC(=O)O)CCN(CC(=O)O)CCN(CC(=O)O)CC3)cc2)NC(=O)[C@H](Cc2ccccc2)N(C)C(=O)CNC(=O)[C@H](CCCCNC(=O)N2CCN(CC(=O)O)CC2)NC(=O)[C@H]2CCCN2C(=O)[C@H](CC(=O)O)NC(=O)[C@H](Cc2ccc(O)cc2)NC(=O)CNC(=O)[C@H](Cc2c[nH]c3ccccc23)NC1=O [Example M5, K(COpipzaa)-Gly-NMePhe-F((4amPEG2NH)2-bE-NHDOTA-Lu)-Ahp-Trp-Gly-Tyr-Asp-D-Pro] (I: cyclo(K([CO-Piperazinyl(4-CH2COOH)])G[NMeF][AEF][Ahp(2)]WGYD[dP]) / II: cyclo(K([CO-Piperazinyl(4-CH2COOH)])G[NMeF][AEF][Ahp(2)]WGYD[dP]); linker I:4-II:4 via X2)	0.25	0.71	0.089	0.137	–	–
CCCCCC[C@@H]1NC(=O)[C@H](Cc2ccc(CNC(=O)COCCOCCNC(=O)CN3CCN(CC(=O)O)CCN(CC(=O)O)CCN(CC(=O)O)CC3)cc2)NC(=O)[C@H](Cc2ccccc2)N(C)C(=O)CNC(=O)CNC(=O)[C@H]2CCCN2C(=O)[C@H](CC(=O)O)NC(=O)[C@H](CCCCNC(=O)N2CCN(CC(=O)O)CC2)NC(=O)CNC(=O)[C@H](Cc2c[nH]c3ccccc23)NC1=O [Example C1, Gly-Gly-NMePhe-F(4amPEG2NHDOTA-Lu)-Aoc-Trp-Gly-K(COpipzaa)-Asp-D-Pro] (cyclo(GG[NMeF][Phe(4-CH2NH2)]([AEEA-DOTA])[Aoc(2)]WGK([CO-Piperazinyl(4-CH2COOH)])D[dP]))	< 0.06	0.016	–	0.006	< 0.016	< 0.01
CCCCCC[C@@H]1NC(=O)[C@H](Cc2ccc(CNC(=O)COCCOCCNC(=O)CN3CCN(CC(=O)O)CCN(CC(=O)O)CCN(CC(=O)O)CC3)cc2)NC(=O)[C@H](Cc2ccccc2)N(C)C(=O)CNC(=O)[C@@H]2CCCN2C(=O)[C@H]2CCCN2C(=O)[C@H](CC(=O)O)NC(=O)[C@H](CCCCNC(=O)N2CCN(CC(=O)O)CC2)NC(=O)CNC(=O)[C@H](Cc2c[nH]c3ccccc23)NC1=O [Example C12, Pro-Gly-NMePhe-F(4amPEG2NHDOTA-Lu)-Aoc-Trp-Gly-K(COpipzaa)-Asp-D-Pro] (cyclo(PG[NMeF][Phe(4-CH2NH2)]([AEEA-DOTA])[Aoc(2)]WGK([CO-Piperazinyl(4-CH2COOH)])D[dP]))	< 0.009	0.014	0.006	0.009	–	–
CCCCCC[C@@H]1NC(=O)[C@H](Cc2ccc(CNC(=O)COCCOCCNC(=O)CN3CCN(CC(=O)O)CCN(CC(=O)O)CCN(CC(=O)O)CC3)cc2)NC(=O)[C@H](Cc2ccccc2)N(C)C(=O)CNC(=O)CNC(=O)[C@H]2CCCN2C(=O)[C@H](CC(=O)O)NC(=O)[C@H](CCCCNC(=O)N2CCN(CC(=O)O)CC2)NC(=O)CNC(=O)[C@H](Cc2c[nH]c3ccccc23)NC1=O [Example C44, Gly-Gly-NMePhe-F(4amPEG2NHDOTA-Ga)-Aoc-Trp-Gly-K(COpipzaa)-Asp-D-Pro] (cyclo(GG[NMeF][Phe(4-CH2NH2)]([AEEA-DOTA])[Aoc(2)]WGK([CO-Piperazinyl(4-CH2COOH)])D[dP]))	< 0.023	0.019	0.006	< 0.15	–	< 0.015
